Data published in PubChem BioAssay AID504466 (National Center for Advancing Translational Sciences (NCATS), 2011).
Screen size: about 330,000 compounds; about 4,200 (1.3%) were called active. Inconclusive means that the source gave no clear call. Such entries were picked first, then a sample of the others. Calls come from the whole dose curve; as a rule, active = well fitted activation curve with a large enough effect; inconclusive = small, poorly fitted or top-dose-only effect; inactive = no such curve, though single readings can be large or run the other way. Potencies of inconclusive entries are doubtful fits and often do not repeat.

assay: qHTS screen for small molecules that induce genotoxicity in human embryonic kidney (HEK293T) cells expressing luciferase-tagged ELG1; settings: HEK293T ELG1-luciferase reporter, luminescence, 16 h; series mostly up to 46 µM; activity change, positive = activation: at the top concentration; note: nearly all actives have a fitted effect of over 60% in size; for activity change, positive = activation: % of control where 0% means no effect
Method in brief: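 DMSO vehicle served as control against compound-treated ELG1-luciferase HEK293T cells; exposure lasted 16 hr at 37 °C and 5% CO2, followed by ONE-Glo luminescence detection after 30 min.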
Potency is the fitted concentration of half-maximal effect; tags give direction and shape of the fitted curve.

Row | SMILES | activity change, positive = activation | Potency
1 | CCN(Cc1ccncc1)Cc1nc(CC2CC2)no1 | inactive: -2.34% | –
2 | CCOC(=O)Nc1ccc2c(c1)ncn2C1CCCCC1 | inactive: 11.6% | –
3 | CCOC(=O)c1cc2ccc3ccccc3c2s1 | – | inconclusive: 20.6 µM [activator, partial curve]
4 | N#CCSc1ccc(-c2nc3ccccc3[nH]2)cn1 | – | inconclusive: 3.26 µM [activator, full curve, poor fit]
5 | C/C(=N\NC(=O)c1ccccc1C)c1ccc(NC(=O)c2cccs2)cc1 | – | inconclusive: 18.4 µM [activator, partial curve, poor fit]
6 | C=CCn1c(C)cc(C(=O)COC(=O)[C@@H](NC(=O)c2ccccc2Cl)C(C)C)c1C | – | inconclusive: 4.11 µM [activator, full curve, poor fit]
7 | C/C(=N\Nc1ccc(Cl)c(C(=O)O)c1)c1ccc2c(c1)OCO2 | – | inconclusive: 6.51 µM [activator, partial curve]
8 | CCCC(=O)Nc1ccc(-c2nc3cc(C)c(C)cc3o2)c(O)c1 | – | inconclusive: 5.01 µM [activator, full curve, poor fit]
9 | COCC(=O)Nc1nc2ccc(C)cc2s1 | – | active: 2.06 µM
10 | COc1ccccc1C1CC(c2ccccc2)Nc2ncnn21 (stereo not drawn) | inactive: -6.14% | –
11 | CCC(C)Nc1nc2c(c(=O)n(C)c(=O)n2C)n1C (stereo not drawn) | inactive: -0.49% | –
12 | CCOc1ccc(C(=O)c2cccs2)cc1 | – | inconclusive: 18.4 µM [activator, partial curve, poor fit]
13 | CC(=Nc1ccc(C)c(C)c1)C1=C(O)CSC1=O | – | active: 18.4 µM
14 | CCN(CC)CCCNC(=O)c1cc2c(-c3ccc(Cl)cc3)nn(C)c2s1 | – | inconclusive: 20.6 µM [activator, partial curve, poor fit]
15 | O=C(NC(Cc1ccccc1)C(=O)O)OCC1c2ccccc2-c2ccccc21 (stereo not drawn) | inactive: 0.703% | –
16 | CCOc1ccc2nc(NC(=O)c3cnccn3)sc2c1 | – | inconclusive: 1.3 µM [activator, full curve]
17 | Nc1ncc(Br)cc1S(=O)(=O)Nc1ccccc1F | inactive: -0.118% | –
18 | O=C(/C=C/c1cccc(Br)c1)c1ccc2c(c1)OCO2 | – | inconclusive: 29.1 µM [activator, single point]
19 | CN(C)c1ccc(-c2ccc3oc(-c4ccsc4)cc(=O)c3c2)cn1 | – | inconclusive: 5.17 µM [activator, full curve, poor fit]
20 | Clc1ccc(C2=Nn3c(Cn4nnc5ccccc54)nnc3SC2)cc1 | inactive: -0.699% | –
21 | CN(C)/C=C/C(=O)/C=C/c1ccc(Cl)cc1 | – | inconclusive: 14.6 µM [activator, partial curve]
22 | O=C(NCCS(=O)(=O)NCCc1ccccc1)c1ccccc1 | – | inconclusive: 23.1 µM [activator, partial curve, poor fit]
23 | COc1ccccc1C(=O)OCc1cc(=O)n2ccsc2n1 | – | inconclusive: 20.6 µM [activator, single point]
24 | O=C(CSCc1ccccc1F)NCc1ccccc1 | – | inconclusive: 20.6 µM [activator, single point]
25 | c1ccc2sc(-c3ccc4c(c3)OCO4)nc2c1 | – | active: 0.58 µM

Row | SMILES | activity change, positive = activation | Potency
26 | CCn1c(=O)cc(OCC(=O)Nc2ccccc2N2CCN(C)CC2)c2ccccc21 | – | inconclusive: 18.4 µM [activator, single point]
27 | CC1CCC(NC(=O)c2cc3ccccc3cc2O)CC1 (stereo not drawn) | inactive: 13.3% | –
28 | Cc1sc2ncnc(N3CCC(C(=O)Nc4ccc(OC(F)F)c(Cl)c4)CC3)c2c1C | inactive: -6.35% | –
29 | Clc1ccc2oc(-c3cccnc3)nc2c1 | inactive: 8.62% | –
30 | Cc1cc(C(=O)Nc2cccc(O)c2)co1 | – | inconclusive: 11.2 µM [activator, partial curve]
31 | NC(=O)c1ccccc1OCC(=O)Nc1ccc(Cl)c(Cl)c1 | – | active: 1.16 µM
32 | CC(C)(C)c1ccc(C(=O)Nc2cccc([N+](=O)[O-])c2)cc1 | – | inconclusive: 6.51 µM [activator, partial curve, poor fit]
33 | COc1cccc(NC(=O)CSc2nnc(C3CCCCC3)n2N)c1 | inactive: -1.51% | –
34 | CCSCCC(NC1=CC(=O)CC(C)(C)C1)C(=O)O (stereo not drawn) | – | inconclusive: 16.4 µM [activator, partial curve, poor fit]
35 | Cc1c(NC(=O)COC(=O)c2cc(-c3ccc(-c4ccccc4)cc3)nc3ccccc23)c(=O)n(-c2ccccc2)n1C | – | inconclusive: 18.4 µM [activator, partial curve, poor fit]
36 | Cc1ccc(-c2nc(-c3cccnc3)no2)c(C)c1 | – | active: 5.17 µM
37 | c1ccc(-c2cnnc(N3CCCCC3)n2)cc1 | – | inconclusive: 7.94 µM [activator, partial curve, poor fit]
38 | C=CCNC(=O)CSc1ccc(Cl)cc1 | – | inconclusive: 29.1 µM [activator, partial curve, poor fit]
39 | Cc1ccc(C)c(S(=O)(=O)NC(C)C(=O)Nc2ccc(-c3nc4ccccc4s3)cc2)c1 (stereo not drawn) | – | inconclusive: 5.17 µM [activator, partial curve]
40 | COc1ccc(C(=O)Nc2ccccc2C(=O)N/N=C/c2ccco2)cc1 | – | inconclusive: 9.2 µM [activator, partial curve, poor fit]
41 | Cc1ccc(C(=O)NNC(=O)OC(C)(C)C)c(Cl)c1 | – | inconclusive: 10 µM [activator, partial curve]
42 | Cc1cc(CNC(=O)Cn2nc(C)c([N+](=O)[O-])c2C)c2ccccc2n1 | inactive: 1.48% | –
43 | Cc1cccc(NC(=O)c2ccc(N3CCCCC3)c([N+](=O)[O-])c2)n1 | – | inconclusive: 3.26 µM [activator, partial curve, poor fit]
44 | Cc1cccc(/C(N)=N/OC(=O)c2ccco2)c1 | – | active: 2.31 µM
45 | O=C(Nc1ccccc1Br)C1CCN(C(=O)Cc2ccccc2)CC1 | inactive: -3.29% | –
46 | COc1ccc(C(=O)CSc2nnc(-c3cccs3)n2-c2ccccc2)cc1 | – | inconclusive: 29.1 µM [activator, single point]
47 | O=C(NC(=S)Nc1cccnc1Cl)c1ccc(F)cc1 | – | inconclusive: 20.6 µM [activator, single point]
48 | Cc1ccc(NC(=O)c2ccco2)c([N+](=O)[O-])c1 | – | inconclusive: 18.3 µM [activator, partial curve, poor fit]
49 | O=C(NCCNC(=O)c1cc(Cl)ccc1Cl)c1ccccn1 | inactive: 2.05% | –
50 | O=C(O)c1ncc(-c2ccccc2)cn1 | inactive: 0.584% | –

Row | SMILES | activity change, positive = activation | Potency
51 | N#Cc1nc(-c2ccc(Cl)cc2)oc1NCCc1ccccn1 | – | active: 8.2 µM
52 | COc1cc(O)c2c(=O)c(-c3ccc(O[C@@H]4O[C@H](CO)[C@@H](O)[C@H](O)[C@H]4O)cc3)coc2c1 | – | inconclusive: 8.2 µM [activator, partial curve]
53 | Cc1cc(OCc2cc(C(=O)N(C)C3CCOC3)no2)cc(C)c1Cl (stereo not drawn) | – | inconclusive: 3.66 µM [activator, full curve]
54 | COc1cc(/C=C2\N=C3CCCCCN3C2=O)ccc1O | – | inconclusive: 11.2 µM [activator, partial curve, poor fit]
55 | COc1cccc(NC(=O)Nc2ccc3c(c2)nc(C)n3C)c1 | – | inconclusive: 2.31 µM [activator, partial curve]
56 | Cc1cc(=O)[nH]c(N/N=C/c2ccc3c(c2)OCCO3)n1 | – | inconclusive: 18.3 µM [activator, partial curve, poor fit]
57 | CCC1CCCCN1CCCNC(=O)c1ccc(N2CCOCC2)c(NS(=O)(=O)c2ccc(OC)cc2)c1 (stereo not drawn) | inactive: 9.35% | –
58 | CC(=O)N/C(N)=N/c1nc2cc([N+](=O)[O-])ccc2o1 | – | inconclusive: 10.3 µM [activator, partial curve, poor fit]
59 | COC(=O)c1cc(Br)ccc1-c1ccc(/C=N/n2nnnc2N)o1 | – | inconclusive: 10.3 µM [activator, partial curve, poor fit]
60 | Cc1c(C(=O)OCC(=O)Nc2ccc(S(N)(=O)=O)cc2)oc2c1ccc1ccccc12 | – | inconclusive: 23.1 µM [activator, partial curve, poor fit]
61 | Cc1ccccc1C(=O)NC(=S)Nc1ncccn1 | – | inconclusive: 14.6 µM [activator, partial curve, poor fit]
62 | CCc1ccc(-c2nc(CN3CCC(C(=O)N4CCN(c5ccccc5)CC4)CC3)c(C)o2)cc1 | inactive: -2.2% | –
63 | COc1ccccc1NC(=O)c1c(N=Cc2cccc([N+](=O)[O-])c2)cnn1C | inactive: 5.52% | –
64 | CCOc1ccccc1NC(=O)c1ccc(OCC)c([N+](=O)[O-])c1 | inactive: 3.37% | –
65 | O=C(NN1C(=O)/C(=C/c2ccc(O)c([N+](=O)[O-])c2)SC1=S)c1ccccc1Cl | inactive: -5.9% | –
66 | S=C(NCc1ccco1)Nc1ccc(Br)cc1Cl | – | inconclusive: 18.3 µM [activator, partial curve, poor fit]
67 | O=C(O)c1ccc2c(=O)n3c(nc2c1)/C(=C/c1cccc(Cl)c1Cl)CC3 | inactive: 4.88% | –
68 | Cc1ccc(-c2noc(COc3ccccc3C)n2)cc1 | – | inconclusive: 18.4 µM [activator, single point]
69 | CCc1ccc(N(C(=O)c2csnn2)C(C(=O)NC(C)(C)C)c2ccccn2)cc1 (stereo not drawn) | – | inconclusive: 23.1 µM [activator, partial curve, poor fit]
70 | CCc1ccc(CCC(=O)Nc2ncc(Cc3ccccc3Cl)s2)o1 | – | inconclusive: 7.31 µM [activator, partial curve]
71 | CN=c1scc(-c2cccs2)n1/N=C/c1ccc(O)c(O)c1O | – | inconclusive: 2.31 µM [activator, partial curve]
72 | O=C(Nc1ccc(S(=O)(=O)N2CCCC2)cc1)c1cccs1 | inactive: -4.39% | –
73 | Cn1c(CCN2CCCCCC2)nc2cc(NC(=O)Nc3ccccc3)ccc21 | – | inconclusive: 14.6 µM [activator, partial curve, poor fit]
